The supplement of paper PMC3334620
In all, about 33,000 sequences were measured (“E-score (-0.5 to 0.5)”: median about -0.054, highest 2% from about 0.39 on). The list shows a part of the results.

Molecular target: Ylr278c (UniProt Q05854)
Assay: PBM E-score (8-mer binding enrichment) (E-score (-0.5 to 0.5)); higher = stronger / more preferred TF binding; most listed sequences are background and not binding sites
Conditions: protein concentration: 200 nM; construct: GST-DNA-binding domain
How it was run: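 GST-tagged yeast TFs (full-length or DNA-binding domain) were made by PURExpress in vitro transcription/translation and applied at about 100-200 nM to universal all-10-mer Agilent arrays. The arrays were made double-stranded by primer extension, on fresh or once-stripped slides. Bound protein was detected with fluorescent anti-GST, and scans were normalised with masliner. Each ungapped eight-base word, pooled with its reverse complement, received an E-score (modified Wilcoxon-Mann-Whitney statistic) from the Universal PBM Analysis Suite.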

In order of falling “PBM E-score” value:
1. AAACCCGG  0.428
2. CCGGATAA  0.417
3. AATATCGG  0.395
4. TATCCGAA  0.371
5. CCGGCAAG  0.363
6. CGGGGAAC  0.341
7. CCGAAAAA  0.337
8. CCGGGTTC  0.337
9. CCGGTAAC  0.3
10. ACCCGCGC  0.284
11. ACGGGAAT  0.228
12. CCGCCCAC  0.217
13. CCGCATGC  0.199
14. ACCGTAGT  0.198
15. CGAGGAAC  0.188
16. CACTTTCC  0.162
17. GGCGACAC  0.156
18. CCGTCCCC  0.156
19. GCCCACCC  0.151
20. CGGTCTGA  0.143
21. AATGTTCG  0.13
22. ACCGACAT  0.129
23. ATTTTTCG  0.125
24. AACTACCT  0.114
25. GTCGGGTA  0.109
26. AAAATCGC  0.0951
27. GGCCTACA  0.0947
28. AGAAATGC  0.086
29. CGCGCTTA  0.0847
30. ACCAAACC  0.0834
31. GCATGTTA  0.0801
32. CGGTACCC  0.0783
33. GCGAATAC  0.0752
34. GGGTGCGA  0.0646
35. AAATATTG  0.0609
36. CTGTTCGC  0.0595
37. GGGTGACC  0.0583
38. ATCATAGG  0.0574
39. GATGGAAA  0.0573
40. GGCGGGTA  0.0566
41. ATGAATTC  0.0522
42. GTCGCGAA  0.0484
43. CGAGGATC  0.045
44. GCGCAACA  0.0413
45. CCAAACTC  0.0397
46. CCGTACAG  0.0394
47. ATACCGTA  0.0382
48. ATGGCCAT  0.0373
49. CGAACAGA  0.0283
50. ATTTACTA  0.0268
51. CCCAGCAG  0.0256
52. GAAAGGTC  0.0206
53. AAACCCAA  0.0205
54. TGTGTAAA  0.0194
55. CGTGTTAG  0.0187
56. AATTTCTA  0.015
57. ATACGGTG  0.0149
58. GGGTTCAA  0.0137
59. GGCCATTA  0.0135
60. CGTGTACC  0.0104
61. GAGACGAC  0.00276
62. CTTGCACC  0.00187
63. AACTCAAT  0.00165
64. CTATTGTC  0.00153
65. AAAAATCA  -0.00065
66. ACGCGATA  -0.00099
67. CAAATTAC  -0.00326
68. ATTAGTCA  -0.00594
69. AGGTGTCA  -0.0131
70. GTTCAGGA  -0.0137
71. GGTTGATA  -0.0138
72. AACGCTCG  -0.0142
73. AATCGCCT  -0.0165
74. ATGTCCTG  -0.0169
75. AAATAGCT  -0.0174
76. AGTTCATC  -0.018
77. CTTTGCGA  -0.0206
78. GATGGGGC  -0.023
79. TCGTCCAA  -0.0264
80. AACTGGCA  -0.0344
81. CTGCATAC  -0.0346
82. GGGCGATA  -0.0374
83. GACCACCA  -0.0382
84. GAGAGGCC  -0.0389
85. AAACGACT  -0.0402
86. GACATTCC  -0.0427
87. ACCCGAAG  -0.0444
88. CTTAGGAA  -0.0471
89. CTGGGGTA  -0.0474
90. ACGCACAG  -0.0483
91. ATTCTGGA  -0.0507
92. GCCATTTA  -0.0531
93. AGGCTAAA  -0.054
94. GCGATGCA  -0.0585
95. CCCATTTC  -0.0594
96. ATGGGAAT  -0.0629
97. ACGGCAGG  -0.064
98. CACCGTTA  -0.064
99. GAAGATCA  -0.0645
100. GTTGGAGA  -0.0658
101. ATACTTTA  -0.0666
102. CTATCATA  -0.0715
103. AATCGCAG  -0.0716
104. AAGGATCC  -0.0717
105. CTTAGATA  -0.0726
106. GTATATGA  -0.0787
107. CGTCTCGA  -0.0808
108. AACTATAC  -0.0813
109. CCTGGGAG  -0.0828
110. CACGCTTC  -0.0833
111. AAAATCAT  -0.087
112. ACTCATAT  -0.0959
113. ACTATACT  -0.0985
114. ACCTAGCT  -0.1
115. TGTTCAAA  -0.103
116. GGGTCTAA  -0.104
117. GCCAGGTA  -0.105
118. TTCCCCAA  -0.105
119. TCAGACAA  -0.106
120. CGACCTAC  -0.109
121. AAGCAGCA  -0.119
122. AATTGTGT  -0.119
123. AAGGGCTA  -0.124
124. ACTATTAA  -0.125
125. GTGCGCTA  -0.125
126. TAGACAAA  -0.125
127. AATGGAGT  -0.128
128. AAGGCCTA  -0.133
129. AATGATTA  -0.134
130. CCAGGCTC  -0.135
131. ACTTGACG  -0.135
132. CAGATAAA  -0.142
133. TATTTTGA  -0.142
134. AGGCGCTA  -0.146
135. AACAATCA  -0.147
136. AAGATCAC  -0.147
137. CTCTCCCA  -0.148
138. GATCTTTA  -0.151
139. AACTTAGG  -0.156
140. CTGTTCAA  -0.156
141. CATTTACA  -0.156
142. AACAATGG  -0.16
143. GCGTTAGC  -0.167
144. CAGTTGGC  -0.169
145. ACCCTCTG  -0.175
146. GTTACTAA  -0.176
147. AAGGATGT  -0.176
148. CACTCATG  -0.182
149. GTTGTGAA  -0.19
150. CAAAGGCA  -0.191
151. GTGCCCCA  -0.192
152. ATCTCTAG  -0.194
153. TCCTCTCA  -0.195
154. CCAGGCCA  -0.197
155. GCATGCCA  -0.199
156. CAATCACA  -0.2
157. AAAGTGGA  -0.204
158. CCATACAA  -0.208
159. GTTGCCAA  -0.209
160. CACATACG  -0.209
161. ATTGGATG  -0.211
162. ACCAAGTA  -0.213
163. CTAGTTTA  -0.22
164. ACGACGTA  -0.221
165. AGGACGAG  -0.227
166. AGGTCTTC  -0.228
167. CAAGTTAA  -0.229
168. CAGCATCA  -0.245
169. AACGTTAC  -0.249
170. GTCTATGA  -0.252
171. GAGAGCCA  -0.285
172. CAAAACAA  -0.327
